Test results reported in article PMC5360572 (EBioMedicine, 2017).

Experiments:
Assay in all cases: SPR; BIAcore 3000, 25 °C; PD-L1-Ig or PD-L2-Ig immobilized on CM5 chip by amine coupling; soluble monomeric PD-1 or mutants (0.01–100 μM) injected at 20 μl/min; equilibrium Kd, 1:1 Langmuir model
Details in all cases: both partners purified
[1] = target: T1, mouse PD-L1 Ig fusion protein (mouse, UniProt Q9EP73 part only)
T1 construct: mouse PD-L1 part of a bought Ig fusion protein; also called mPD-L1; murine PD-L1-Ig; source: bought: R&D Systems

[2] = target: T2, mouse PD-L2 Ig fusion protein (mouse, UniProt Q9WUL5 20-221)
T2 construct: mouse PD-L2 part of a bought Ig fusion protein; also called mPD-L2; murine PD-L2-Ig; source: bought: R&D Systems
T2 sequence (looked up): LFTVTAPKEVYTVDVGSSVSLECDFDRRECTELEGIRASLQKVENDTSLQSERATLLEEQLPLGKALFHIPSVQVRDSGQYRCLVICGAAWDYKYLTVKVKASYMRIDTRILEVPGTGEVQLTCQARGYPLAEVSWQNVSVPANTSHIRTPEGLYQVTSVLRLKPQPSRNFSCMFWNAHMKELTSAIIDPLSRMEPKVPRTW

[3] = target: T3, human PD-L2 Ig fusion protein (human, UniProt Q9BQ51 20-220)
T3 construct: characterized by SEC prior to use; also called huPD-L2; B7-DC; source: bought: R&D Systems
T3 sequence (looked up): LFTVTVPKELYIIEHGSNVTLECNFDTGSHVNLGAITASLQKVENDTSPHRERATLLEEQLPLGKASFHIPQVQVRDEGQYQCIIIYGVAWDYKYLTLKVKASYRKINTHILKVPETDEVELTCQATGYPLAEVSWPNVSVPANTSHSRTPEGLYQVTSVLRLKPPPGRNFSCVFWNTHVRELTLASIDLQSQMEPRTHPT

T1 sequence (Q9EP73 19-239): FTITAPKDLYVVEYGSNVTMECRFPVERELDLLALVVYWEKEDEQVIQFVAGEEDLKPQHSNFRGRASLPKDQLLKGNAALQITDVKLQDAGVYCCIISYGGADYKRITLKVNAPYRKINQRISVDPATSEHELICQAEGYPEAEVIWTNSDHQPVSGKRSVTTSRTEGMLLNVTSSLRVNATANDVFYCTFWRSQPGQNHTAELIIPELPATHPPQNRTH

B1: human PD-1 A132L mutant extracellular IgV domain (soluble, monomeric) (domain or fragment)
chain: not shown
notes: numbering relative to the initiator methionine; crystal structure of this mutant alone deposited as PDB 3RRQ; also called huA132L; HA PD-1
B1 was tested, and the Kd [1] was 230 nM, the Kd [2] was 29 nM and the Kd [3] was 6.5 nM.
